Experimental data taken from PubChem BioAssay AID485364 (National Center for Advancing Translational Sciences (NCATS), 2010).
The whole screen tested about 360,000 compounds, of which about 11,000 (3.1%) were called active. The inconclusive results got no clear call from the source; some entries with a clear call stand among them for comparison. The call rests on the fitted dose curve; in most records, active means well fitted inhibition curve with a large enough effect; inconclusive means small, poorly fitted or top-dose-only effect; inactive means no such curve, though single readings can be large or run the other way. No potency is given beside an inconclusive call; the fits are too rough.

These compounds were tested against Schistosoma mansoni thioredoxin glutathione reductase (TGR) (UniProt Q962Y6) (assay: qHTS Assay for the Inhibitors of Schistosoma Mansoni Peroxiredoxins). Conditions: purified TGR, DTNB reduction, TNB absorbance 405 nm; series mostly up to 114 µM.
Summary of the method: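 First, TGR (20 nM dispensed) and NADPH were mixed with compound. Second, a 15 min room-temperature incubation followed. Third, further NADPH and then DTNB were added to start the reaction. Finally, TNB absorbance was monitored kinetically.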
Further: nearly all actives have a fitted effect of over 60% in size.
Potency means the concentration at half of the fitted maximal effect; tags describe the fitted curve by direction and shape.

Structure (SMILES) | Potency
COc1cc2c(cc1OC)C1O[C@](CCCCN3C(=O)c4ccccc4C3=O)(C2)OC2=C1C(=O)OC1(CCCCC1)C2 | active: 4.47 µM
O=C1NC(=O)C(=Cc2ccccc2OCCOc2ccc([N+](=O)[O-])cc2)C(=O)N1 | inconclusive [inhibitor, full curve]
O=C(NC1CCCC1)c1ccc2c(=O)n(Cc3ccccc3)c(SCc3cccc([N+](=O)[O-])c3)nc2c1 | inactive
CN(C(=O)CSc1cc(C(=O)c2nccn2C)c2ccccc2n1)c1ccccc1 | inconclusive [inhibitor, partial curve]
Cc1ccc(C(=O)NC(=S)NNS(=O)(=O)c2ccccc2)cc1 | active: 12.6 µM
O=S(=O)(Nc1nc2ccccc2s1)c1cnc(Cl)c(Br)c1 | inconclusive [inhibitor, single point]
CCc1ccccc1NC(=O)N1CCc2ccccc21 | inactive
CCc1ccccc1NC(=O)CN(C)S(=O)(=O)c1ccc(-c2ccc(=O)[nH]n2)s1 | inconclusive [inhibitor, full curve, poor fit]
O=C(Nc1ccc2nn(-c3ccccc3)nc2c1)c1ccco1 | inactive
CCOc1cc(C2c3c(oc4cc(C)cc(C)c4c3=O)C(=O)N2CCO)ccc1O (configuration not stated) | inconclusive [inhibitor, partial curve]
O=C(O)c1cccc(Cn2c(Cl)c(/C=N/NC(=O)c3ccc(O)cc3)sc2=O)c1 | active: 31.6 µM
N#C/C(=C\c1cccc(F)c1)c1nc(-c2cc3c(ccc4ccccc43)oc2=O)cs1 | inactive
CCOC(=O)c1c(/N=C/C2C(=O)NC(=S)NC2=O)sc2c1CCC2 | inconclusive [inhibitor, full curve]
COC(=O)CSc1nc2c(c(-c3ccc(C)o3)c1C#N)CCCC2 | inactive
CCCCOc1ccc(/C=C/C2=CC(C)(C)NC(=S)N2)cc1OCC | inconclusive [inhibitor, full curve]
Cc1ccc(C(=O)Nc2ccc(S(=O)(=O)Nc3ncccn3)cc2)cc1[N+](=O)[O-] | inactive
C/C(CC(=O)Nc1ccc(N(C)C)cc1)=N\NC(=O)c1ccccn1 | inconclusive [inhibitor, full curve]
Cc1ccc(CNn2cnnc2SCC(=O)NC(C)(C)C)cc1 | inconclusive [inhibitor, single point]
Cc1ccc(C2c3c(oc4ccccc4c3=O)C(=O)N2CCCN2CCOCC2)o1 (configuration not stated) | inconclusive [inhibitor, partial curve, poor fit]
CCOc1ccccc1NC(=O)C(=O)NCCc1sc2nc(-c3ccc(OC)cc3)nn2c1C | inactive
COc1cc(NS(=O)(=O)c2ccc(NC(=S)NC(=O)CC(C)C)cc2)nc(OC)n1 | inconclusive [inhibitor, partial curve]
Cc1nn2c(N3CCCC3)cc(C(C)C)nc2c1-c1ccccc1 | inconclusive [inhibitor, single point]
CCCNS(=O)(=O)c1ccc(CCC(=O)NCc2ccco2)cc1 | inconclusive [inhibitor, partial curve]
COCc1cc(=O)[nH]c(N2CCN(c3ccccc3OC)CC2)n1 | inconclusive [inhibitor, single point]

Structure (SMILES) | Potency
COc1cc(/C=C2\C(=O)ON=C2c2ccccc2)cc(Br)c1O | active: 1.58 µM
CN(Cc1ccccc1)C1=CC(=[N+]2CCCCC2)CC(C)(C)C1 | inconclusive [inhibitor, single point]
CN1c2cccc3cccc(c23)N(C)C1(C)C | inconclusive [inhibitor, full curve]
O=c1[nH]c2ccc(NC(=S)Nc3ccc(F)cc3)cc2[nH]1 | inconclusive [inhibitor, partial curve]
COc1ccc(C2=NN(C(C#N)c3ccc(OC)cc3)C(c3ccccc3)C2)cc1 (configuration not stated) | inactive
O=c1[nH]c(=S)n(-c2ccccc2)c(O)c1/C=N/N1CCCCC1c1cccnc1 (configuration not stated) | inconclusive [inhibitor, partial curve]
Nc1ncnc(Oc2ccccc2F)c1[N+](=O)[O-] | inconclusive [inhibitor, partial curve]
O=C1/C(=C/c2ccco2)Oc2c1ccc(O)c2CN1CCCCC1 | inconclusive [inhibitor, full curve]
O=C1NC(=O)N(CCc2ccc(F)cc2)C(=O)/C1=C/c1cccs1 | inconclusive [inhibitor, full curve]
COc1ccc(Nc2cccccc2=O)cc1 | inactive
CC(C)N1C(=O)CC2(CC[N+](C)(CCOC(=O)C(c3ccccc3)c3ccccc3)CC2)C1=O (configuration not stated) | active: 50.1 µM
COc1cccc(CN(C)C(=O)c2ccc(OCC(=O)N3CCOCC3)c(OC)c2)c1 | inactive
Cc1ccccc1OCC(=O)Nc1ccc(-c2nc3ncccc3o2)cc1 | inconclusive [inhibitor, single point]
C=CCn1c(O)c(C(C)=NCCCN2CCOCC2)c(=O)[nH]c1=O | inconclusive [inhibitor, single point]
CC1(C)Cc2c(sc3c2c(=N)n(Cc2ccco2)c(=O)n3Cc2ccc(Cl)cc2)CO1 | inconclusive [inhibitor, single point]
COc1cccc(NC(=O)[C@@H]2CCCN2C(=O)[C@@H]2Cc3ccccc3CN2C(=O)OC(C)(C)C)c1 | inactive
CC(=O)c1cccc(NC(=O)Nc2ccc3c(c2)N(C)C(=O)CS3)c1 | inactive
COc1cccc(CNc2cc(C)ccn2)c1O | active: 22.4 µM
CC(C)C(C)(C#N)NC(=O)CSc1nc2scc(-c3ccco3)c2c(=O)n1-c1ccccc1 (configuration not stated) | inconclusive [inhibitor, full curve]
O=C(CCS(=O)(=O)c1ccc(Br)cc1)NC1CCCCCC1 | inactive
CCOC(=O)c1ccc(NC(=O)c2c(NCc3cccs3)sc3c2CCCC3)cc1 | inactive
O=C(CCC(=O)N1CC2C[C@@H](C1)Cn1c2cccc1=O)NCCc1ccccc1 | inconclusive [inhibitor, full curve, poor fit]
CCc1ccc(NC(=S)Nc2cccc3cnccc23)cc1 | inconclusive [inhibitor, partial curve]
COc1ccc(S(=O)(=O)NCC(c2ccco2)S(=O)(=O)c2cccs2)cc1C (configuration not stated) | active: 0.1 µM

Structure (SMILES) | Potency
O=Cc1ccc(Sc2nnc(-c3ccccc3)o2)c([N+](=O)[O-])c1 | active: 11.2 µM
O=C(CN1CCCC1)N1c2ccccc2Sc2ccc(C(F)(F)F)cc21 | inactive
Cc1ccc(Cn2c(CCC(=O)O)nc3ncccc3c2=O)cc1 | inactive
Cc1ccc(N/N=C2\CC(=O)c3ccccc32)cc1Cl | inconclusive [inhibitor, partial curve]
Cn1c(=O)c(=O)n(C)c2cc(S(=O)(=O)CCC(=O)Nc3ccc(F)cc3)ccc21 | inconclusive [inhibitor, partial curve]
O=C(CCS(=O)(=O)c1ccc(F)cc1)Nc1nnc(-c2ccco2)o1 | inconclusive [inhibitor, partial curve]
Oc1ccc2ccccc2c1CN1CCCC1 | active: 2.51 µM
Cc1ccc(-c2nc3ccccn3c2Nc2ccccc2C)s1 | inconclusive [inhibitor, single point]
Cc1ccc2cc(CN(Cc3nnnn3Cc3ccco3)CC3CCCO3)c(=O)[nH]c2c1C (configuration not stated) | active: 17.8 µM
CC(C)NC(=O)COC(=O)c1ccc(Oc2ccccc2)cc1 | inconclusive [inhibitor, full curve, poor fit]
CC(=O)/C=C/n1c(=S)oc2ccccc21 | active: 2.51 µM
O=C(Nc1ccc(C(=O)N2CCCCC2)cc1)c1ccc([N+](=O)[O-])cc1 | inactive
CCNc1oc(-c2ccccc2F)nc1S(=O)(=O)c1ccccc1 | active: 39.8 µM
CC(C)CC(NC(=O)/C(=C\c1ccco1)NC(=O)c1ccco1)C(=O)O (configuration not stated) | active: 35.5 µM
Cc1cc(S(=O)(=O)NCC(c2ccco2)S(=O)(=O)c2ccccc2)ccc1F (configuration not stated) | inconclusive [inhibitor, partial curve, poor fit]
Cc1cc(SCc2ccccc2C)nc(=O)[nH]1 | inactive
CCc1nn(CC(=O)NCCCN2CCN(C)CC2)c(=O)c2cc3sc(C)cc3n12 | inconclusive [inhibitor, partial curve]
CCOC(=O)c1cn[nH]c1NC(=S)Nc1ccc(OC)cc1 | inconclusive [inhibitor, full curve]
CN(C(=O)CSC1=Nc2ccccc2C2=NC(c3ccccc3)C(=O)N12)C1CCCCC1 (configuration not stated) | inconclusive [inhibitor, partial curve]
CCOc1cccc2cc(C(=O)Oc3ccc(OC)cc3)c(=O)oc12 | active: 39.8 µM
COc1cc(/C=C/CN2CCN(CCC(C)C)C(CCO)C2)ccc1O (configuration not stated) | active: 12.6 µM
CNC(=O)c1c(NC(=O)/C=C/c2ccccc2Cl)sc2c1CCC2 | inconclusive [inhibitor, partial curve]
CCOC(=O)c1cc(C)sc1NC(=S)Nc1ccccc1 | inconclusive [inhibitor, full curve, poor fit]
O=C(N/N=C/c1cc(Br)c(O)c(Br)c1O)c1ccc2c(c1)OCCO2 | inconclusive [inhibitor, full curve]
